Results reported in PMC4941644.
These are yes or no findings as the source states them, for the method shown. In cells and extracts the contact can be indirect. Some results given as binding are weak or reduced against the parent protein; the word gives no strength. One block for each molecule: values may come before it.

Amino acid sequences for entries named in this document (tags omitted). A change or cut given only in a name is not applied to a line headed by its entry. Residues count along the entry.
UniProt P25105: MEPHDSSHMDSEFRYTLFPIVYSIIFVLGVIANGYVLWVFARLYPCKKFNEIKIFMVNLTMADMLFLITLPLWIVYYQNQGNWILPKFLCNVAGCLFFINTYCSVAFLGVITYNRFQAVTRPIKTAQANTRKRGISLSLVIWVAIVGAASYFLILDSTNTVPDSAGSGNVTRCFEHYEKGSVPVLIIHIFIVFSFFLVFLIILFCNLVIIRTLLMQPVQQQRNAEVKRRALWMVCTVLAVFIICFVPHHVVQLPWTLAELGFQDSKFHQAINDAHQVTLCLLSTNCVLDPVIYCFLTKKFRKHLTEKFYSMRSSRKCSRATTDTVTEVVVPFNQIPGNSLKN
311stop PTAFR: residues 1-310 of P25105
UniProt Q14974: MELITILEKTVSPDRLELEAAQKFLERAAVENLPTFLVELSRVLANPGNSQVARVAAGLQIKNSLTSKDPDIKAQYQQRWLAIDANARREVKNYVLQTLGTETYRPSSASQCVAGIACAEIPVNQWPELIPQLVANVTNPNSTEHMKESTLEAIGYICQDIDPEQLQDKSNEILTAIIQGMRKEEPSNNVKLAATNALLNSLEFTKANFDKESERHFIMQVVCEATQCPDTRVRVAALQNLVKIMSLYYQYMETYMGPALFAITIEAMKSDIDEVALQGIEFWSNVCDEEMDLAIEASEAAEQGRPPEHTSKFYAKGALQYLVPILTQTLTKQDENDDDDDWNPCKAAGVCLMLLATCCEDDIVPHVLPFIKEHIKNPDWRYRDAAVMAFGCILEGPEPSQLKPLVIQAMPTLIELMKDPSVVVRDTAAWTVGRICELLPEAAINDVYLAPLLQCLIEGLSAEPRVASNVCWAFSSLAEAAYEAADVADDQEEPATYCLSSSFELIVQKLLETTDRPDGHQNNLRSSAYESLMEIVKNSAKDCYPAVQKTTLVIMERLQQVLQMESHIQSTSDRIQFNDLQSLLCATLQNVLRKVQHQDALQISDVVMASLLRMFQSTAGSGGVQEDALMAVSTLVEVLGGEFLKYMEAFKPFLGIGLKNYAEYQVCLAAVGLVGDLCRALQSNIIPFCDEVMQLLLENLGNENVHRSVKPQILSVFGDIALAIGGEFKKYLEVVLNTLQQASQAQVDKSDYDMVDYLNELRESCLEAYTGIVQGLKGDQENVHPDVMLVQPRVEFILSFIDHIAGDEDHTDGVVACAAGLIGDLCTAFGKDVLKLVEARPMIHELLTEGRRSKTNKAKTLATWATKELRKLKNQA
UniProt P20339: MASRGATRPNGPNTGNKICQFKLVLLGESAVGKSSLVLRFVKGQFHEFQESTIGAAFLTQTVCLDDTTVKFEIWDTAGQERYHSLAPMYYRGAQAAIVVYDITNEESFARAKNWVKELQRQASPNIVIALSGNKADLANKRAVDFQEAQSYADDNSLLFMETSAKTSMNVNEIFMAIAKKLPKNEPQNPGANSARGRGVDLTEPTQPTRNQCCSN
UniProt P51149: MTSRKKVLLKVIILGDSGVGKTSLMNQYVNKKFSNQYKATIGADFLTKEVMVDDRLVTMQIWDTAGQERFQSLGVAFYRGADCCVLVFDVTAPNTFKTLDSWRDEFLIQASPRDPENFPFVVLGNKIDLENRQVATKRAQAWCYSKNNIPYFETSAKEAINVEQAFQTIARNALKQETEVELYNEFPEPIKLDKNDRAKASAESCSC
UniProt P62491: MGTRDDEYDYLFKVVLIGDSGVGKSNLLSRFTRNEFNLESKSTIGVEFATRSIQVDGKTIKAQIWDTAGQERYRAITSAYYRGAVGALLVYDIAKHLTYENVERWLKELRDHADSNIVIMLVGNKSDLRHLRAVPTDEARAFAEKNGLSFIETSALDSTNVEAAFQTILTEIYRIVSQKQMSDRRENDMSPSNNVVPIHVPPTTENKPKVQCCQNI

Key:
[1] = biological target: platelet-activating factor receptor (PTAFR), endogenous in human retinal microvascular endothelial cells (human (endogenous in hRMECs)) (UniProt P25105); assay: co-IP; hRMECs without PAF C-16 stimulation (first column of Figure 3a); RIPA lysates (500 ug), primary antibody with Protein A/G PLUS-Agarose overnight at 4 °C
[2] = biological target: platelet-activating factor receptor (PTAFR), endogenous in human retinal microvascular endothelial cells (human (endogenous in hRMECs)) (UniProt P25105); assay: co-IP; hRMECs stimulated with PAF C-16 (100 nM), lysed at the indicated time-points; RIPA lysates (500 ug), primary antibody with Protein A/G PLUS-Agarose overnight at 4 °C; PTAFR blotted as loading control of the precipitate
[3] = biological target: importin β1 (human (endogenous in hRMECs)) (UniProt Q14974); assay: co-IP; hRMEC lysates, co-immunoprecipitation with importin β1 (Supplementary Figure S3B)
[4] = biological target: 311stop PTAFR (human) (UniProt P25105); assay: co-IP; co-immunoprecipitation of IPO5 with wild-type or 311stop PTAFR (Supplementary Figure S3C); cells not given
[5] = biological target: wild-type PTAFR (as compared with the 311stop mutant) (human) (UniProt P25105); assay: as above

binding [2]: binds
Molecule: RAB5A (from UniProt P20339 1-215)
binding [1]: no binding (condition: without PAF C-16 stimulation)

binding [2]: binds
Molecule: RAB7A (from UniProt P51149 1-207)
binding [1]: no binding (condition: without PAF C-16 stimulation)

binding [3]: no binding
binding [1]: binds
binding [2]: binds
Molecule: RAB11A (from UniProt P62491 1-216)

binding [3]: no binding
Molecule: platelet-activating factor receptor (PTAFR), endogenous in human retinal microvascular endothelial cells (from UniProt P25105 1-342)

binding [4]: no binding
binding [5]: binds
B1: importin-5 (protein, UniProt O00410 1-1097)
chain: MAAAAAEQQQFYLLLGNLLSPDNVVRKQAEETYENIPGQSKITFLLQAIRNTTAAEEARQMAAVLLRRLLSSAFDEVYPALPSDVQTAIKSELLMIIQMETQSSMRKKVCDIAAELARNLIDEDGNNQWPEGLKFLFDSVSSQNVGLREAALHIFWNFPGIFGNQQQHYLDVIKRMLVQCMQDQEHPSIRTLSARATAAFILANEHNVALFKHFADLLPGFLQAVNDSCYQNDDSVLKSLVEIADTVPKYLRPHLEATLQLSLKLCGDTSLNNMQRQLALEVIVTLSETAAAMLRKHTNIVAQTIPQMLAMMVDLEEDEDWANADELEDDDFDSNAVAGESALDRMACGLGGKLVLPMIKEHIMQMLQNPDWKYRHAGLMALSAIGEGCHQQMEGILNEIVNFVLLFLQDPHPRVRYAACNAVGQMATDFAPGFQKKFHEKVIAALLQTMEDQGNQRVQAHAAAALINFTEDCPKSLLIPYLDNLVKHLHSIMVLKLQELIQKGTKLVLEQVVTSIASVADTAEEKFVPYYDLFMPSLKHIVENAVQKELRLLRGKTIECISLIGLAVGKEKFMQDASDVMQLLLKTQTDFNDMEDDDPQISYMISAWARMCKILGKEFQQYLPVVMGPLMKTASIKPEVALLDTQDMENMSDDDGWEFVNLGDQQSFGIKTAGLEEKSTACQMLVCYAKELKEGFVEYTEQVVKLMVPLLKFYFHDGVRVAAAESMPLLLECARVRGPEYLTQMWHFMCDALIKAIGTEPDSDVLSEIMHSFAKCIEVMGDGCLNNEHFEELGGILKAKLEEHFKNQELRQVKRQDEDYDEQVEESLQDEDDNDVYILTKVSDILHSIFSSYKEKVLPWFEQLLPLIVNLICPHRPWPDRQWGLCIFDDVIEHCSPASFKYAEYFLRPMLQYVCDNSPEVRQAAAYGLGVMAQYGGDNYRPFCTEALPLLVRVIQSADSKTKENVNATENCISAVGKIMKFKPDCVNVEEVLPHWLSWLPLHEDKEEAVQTFNYLCDLIESNHPIVLGPNNTNLPKIFSIIAEGEMHEAIKHEDPCAKRLANVVRQVQTSGGLWTECIAQLSPEQQAAIQELLNSA
